Experimental data reported in paper PMC4336329 (PLoS ONE, 2015).
Hit rate of the full screen: of about 310,000 compounds, about 2,200 (0.71%) showed an effect of 50% or more. The effect is printed as a negative number. The list shows a part of the results.

target: human ether-à-go-go-related gene (hERG) potassium channel (human, UniProt Q12809); assay: primary screen, population patch clamp on CHO cells stably expressing hERG
Sequence (Q12809 whole entry, looked up): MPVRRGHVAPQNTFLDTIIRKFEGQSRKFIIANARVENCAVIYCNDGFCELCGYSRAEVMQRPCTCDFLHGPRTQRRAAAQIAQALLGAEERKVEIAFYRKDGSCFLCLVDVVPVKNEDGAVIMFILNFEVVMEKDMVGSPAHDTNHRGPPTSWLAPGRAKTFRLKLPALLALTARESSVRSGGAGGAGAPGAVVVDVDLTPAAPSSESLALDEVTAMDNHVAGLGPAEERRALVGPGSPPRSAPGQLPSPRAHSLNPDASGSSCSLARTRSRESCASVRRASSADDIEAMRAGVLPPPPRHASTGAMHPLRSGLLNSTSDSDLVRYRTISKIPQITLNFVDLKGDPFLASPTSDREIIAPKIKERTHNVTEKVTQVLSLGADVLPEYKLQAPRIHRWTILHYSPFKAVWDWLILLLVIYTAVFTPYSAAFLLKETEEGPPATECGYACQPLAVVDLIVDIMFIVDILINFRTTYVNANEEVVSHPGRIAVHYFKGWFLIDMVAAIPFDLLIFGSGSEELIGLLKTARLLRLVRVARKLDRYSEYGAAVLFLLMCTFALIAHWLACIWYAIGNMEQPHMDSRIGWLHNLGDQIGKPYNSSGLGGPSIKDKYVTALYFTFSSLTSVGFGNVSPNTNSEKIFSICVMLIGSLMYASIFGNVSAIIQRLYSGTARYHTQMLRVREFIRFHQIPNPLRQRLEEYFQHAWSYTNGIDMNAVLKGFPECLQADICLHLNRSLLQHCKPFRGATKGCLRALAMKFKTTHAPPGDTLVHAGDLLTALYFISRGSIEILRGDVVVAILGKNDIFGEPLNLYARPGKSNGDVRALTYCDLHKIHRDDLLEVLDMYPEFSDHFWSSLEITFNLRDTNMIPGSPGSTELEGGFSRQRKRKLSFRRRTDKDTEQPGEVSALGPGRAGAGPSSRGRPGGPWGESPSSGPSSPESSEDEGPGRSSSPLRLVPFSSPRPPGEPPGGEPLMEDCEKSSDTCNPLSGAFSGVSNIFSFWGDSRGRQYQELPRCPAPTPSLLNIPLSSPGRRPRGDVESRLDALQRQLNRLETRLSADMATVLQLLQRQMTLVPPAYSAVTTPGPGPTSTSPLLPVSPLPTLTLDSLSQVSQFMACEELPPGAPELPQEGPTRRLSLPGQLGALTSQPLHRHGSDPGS

| SMILES | hERG current change (%, negative = inhibition) at 1uM |
| --- | --- |
| Cc1cc(C(=O)N/N=C/c2cccnc2)c2ccccc2n1 | 10.9% |
| Cc1ccc(NCc2nnc(SCc3ccc(C#N)cc3)n2Cc2ccco2)c(C)c1 | -54.9% |
| Cn1cccc1C(C#N)c1cccc(F)c1C#N (stereo not drawn) | 6.75% |
| CC(C)n1c(-c2cccs2)nc2ccccc21 | 3.19% |
| Cn1nccc1C(=O)Nc1cccc(C(F)(F)F)c1 | 13.5% |
| O=C(O)CP(=O)(O)O | 8.55% |
| CSc1ccccc1C(=O)C1CCCN(C(=O)c2cncs2)C1 (stereo not drawn) | 7.27% |
| O=C(NCCc1c[nH]c2ccccc12)c1cnc2sccn2c1=O | 6.71% |
| COc1ccccc1CCNC(=O)CN1C(=O)c2ccccc2S1(=O)=O | 9.09% |
| COc1ccccc1CNC(=O)CCC(=O)n1ncc2cc(C)ccc21 | 12.3% |
| c1ccc(Cn2c(CSc3nnnn3-c3ccccc3)nc3ccccc32)cc1 | 10.1% |
| Cc1cccc(Nc2nnc(C)c(=O)n2N)c1 | -8.9% |
| O=C(NCc1ccccn1)c1cc2c(ccc3ccccc32)oc1=O | 8.77% |
| CC(C)CNC(=S)NC(=O)c1ccc([N+](=O)[O-])cc1 | 5.61% |
| O=C(Cc1c(C(=O)O)[nH]c2ccccc12)NC1CCCC1 | 15.3% |
| CCCC(=O)N1N=C(c2ccccc2)CC1c1cn(C)c2ccccc12 (stereo not drawn) | 4.39% |
| O=C(CCN1C(=O)/C(=C/c2ccccc2F)SC1=S)NCCCN1CCOCC1 | 2.83% |
| Cc1cc(C)c(CN2CCN(Cc3ccc(C)o3)C(CCO)C2)c(-n2cccn2)c1 (stereo not drawn) | -70.9% |
| COc1ccc(CCn2c(-c3ccc(C(C)(C)C)cc3)n[nH]c2=S)cc1OC | 9.83% |
| COc1cc(-c2cc(C(=O)O)c3c(OC)c(OC)c(OC)cc3n2)ccc1O | 9.62% |

| SMILES | hERG current change (%, negative = inhibition) at 1uM |
| --- | --- |
| Cc1nn2c(=O)c3c4c(sc3nc2n1-c1ccccc1)COC(C)(C)C4 | 9.75% |
| COc1ccc(C(=O)c2ccc(N(C)C)cc2)c(OC)c1 | -0.697% |
| CC(=O)N(CC(=O)O)c1ccccc1C(=O)O | 7.66% |
| CNc1ccccc1 | 10.4% |
| Cc1cc(/C=N/Nc2ccc([N+](=O)[O-])cn2)c(C)n1-c1ccccc1 | 11.6% |
| Cc1ccc(C)c(NC(=O)C2C3CCCC2C3c2ccccc2)c1 (stereo not drawn) | 11.4% |
| N#Cc1cc2ccccc2nc1SCC(=O)Nc1ccccc1N1CCOCC1 | 14.7% |
| CC1=CC(c2ccccc2)n2nc(N3C(=O)c4ccccc4C3=O)nc2N1 (stereo not drawn) | 15.2% |
| CCn1c(Cc2ccccc2)nnc1SCC(=O)NC1CCCC1 | 23.6% |
| Cc1ccc(-c2cc(C(=O)N3CCN(C(=O)c4ccco4)CC3)[nH]n2)c(C)c1 | -14.1% |
| Cc1cc(C)cc(N(C(=O)c2ccco2)C(C(=O)NC2CCCC2)c2ccncc2)c1 (stereo not drawn) | -3.5% |
| CCCCC(=O)Nc1ccc(C(=O)N2CCCC(C(=O)OCC)C2)cc1 (stereo not drawn) | 11.4% |
| COc1cc(CC2(CCc3ccncc3)C(=O)NC(=O)NC2=O)cc(OC)c1OC | 16.3% |
| CCC(=O)Nc1ccc(NC(=O)CSc2nnnn2-c2cccnc2)cc1C | 11.4% |
| COc1cccc(-c2c(C#N)c(N)nc3c2c(=O)nc2sccn23)c1 | 12.9% |
| CC1CCN(c2c(NCC3CCC(C(=O)NCc4ccccc4Cl)CC3)c(=O)c2=O)CC1 (stereo not drawn) | 6.87% |
| COc1ccccc1N1CCN(C(=O)c2cc(-c3ccc(F)cc3)[nH]c2C)CC1 | -22% |
| Cc1ccc(N=Nc2c(N)n[nH]c2N)cc1 | 17.8% |
| CN(C)C(=O)c1cccn(Cc2cccc(C(F)(F)F)c2)c1=O | 12.1% |
| Cc1ccc(S(=O)(=O)N2CC(=O)Nc3ccccc32)c(C)c1NS(C)(=O)=O | 8.93% |

| SMILES | hERG current change (%, negative = inhibition) at 1uM |
| --- | --- |
| Cc1ccc(S(=O)(=O)NCC(=O)NCC(=O)NCCc2ccccc2F)cc1C | 5.69% |
| Cl.Fc1ccccc1/C=N/N1CCN(Cc2ccccc2Cl)CC1 | 20.8% |
| COc1ccc2[nH]c(CN3CCN(CCC(C)C)C(CCO)C3)c(C)c2c1 (stereo not drawn) | 15.3% |
| COc1cc2cc(C(=O)O)n(C)c2c(OC)c1OC | 5.22% |
| O=C(O)COc1ccc(/C=C/c2nc(-c3ccccc3O)n[nH]2)cc1 | 16.2% |
| CCc1ccc(N2C(=O)CC(N(CC3CCCO3)C(=O)/C=C/C(=O)O)C2=O)cc1 (stereo not drawn) | 17.9% |
| Cc1cc(C(=O)N2CCN(c3ccccn3)CC2)no1 | -4.85% |
| CC1=NCCc2c1[nH]c1cc(O)ccc21.Cl.O | 11.7% |
| CCNC(=S)N/N=C/c1cc(C)ccc1C | 17.5% |
| NC(=O)c1cc([N+](=O)[O-])ccc1NCc1ccc(O)cc1 | 7.53% |
| Cc1ccc(SCCNC(=O)CN2C(=O)c3ccccc3S2(=O)=O)cc1 | 3.33% |
| Cc1cc(C)c(C#N)c(SCCS(=O)(=O)Cc2ccccc2)n1 | 20.3% |
| COCCN(CCOC)c1ncnc2c1cnn2-c1ccc(Cl)cc1 | 1.34% |
| Nc1nc2n(n1)C(c1ccco1)CC(c1ccc(Cl)cc1Cl)N2 (stereo not drawn) | -1.45% |
| CCCCCCN1CCN(c2ccc(Cl)cc2)CC1 | -0.331% |
| CCc1nnc(NC(=O)c2n[nH]c(=O)c3ccccc23)s1 | 11.1% |
| CCCCn1c(=O)c(C=Nc2cc([N+](=O)[O-])ccc2OC)c(O)n(CCCCl)c1=O | -27.1% |
| COc1cccc(CNC(=O)CC2C(=O)NCCN2CCCc2ccccc2)c1 (stereo not drawn) | 9.23% |
| C(=N\Nc1ccccc1)/c1ccc(N2CCOCC2)cc1 | 9.73% |
| CC(=O)Nc1ccc(S(=O)(=O)Nc2cccc(-n3cnnn3)c2)cc1 | 13.9% |
